The other results are listed elsewhere or left out.
B1: PhoQ; a variant is named by its letters at X, in order, P23837 (parent)
chain: MKKLLRLFFPLSLRVRFLLATAAVVLVLSLAYGMVALIGYSVSFDKTTFRLLRGESNLFYTLAKWENNKLHVELPENIDKQSPTMTLIYDENGQLLWAQRDVPWLMKMIQPDWLKSNGFHEIEADVNDTSLLLSGDHSIQQQLQEVREDDDDAEMTHSVAVNVYPATSRMPKLTIVVVDTIPVELKSSYMVWSWFIYVLSANLLLVIPLLWVAAWWSLRPIEALAKEVRELEEHNRELLNPATTRELTSLVRNLNRLLKSERERYDKYRTTLTDLTHSLKTPLXXLQXXLRSLRSEKMSVSDAEPVMLEQISRISQQIGYYLHRASMRGGTLLSRELHPVAPLLDNLTSALNKVYQRKGVNISLDISPEISFVGEQNDFVEVMGNVLDNACKYCLEFVEISARQTDEHLYIVVEDDGPGIPLSKREVIFDRGQRVDTLRPGQGVGLAVAREITEQYEGKIVAGESMLGGARMEVIFGRQHSAPKDE

Variants of: B1
Assay: enrichment ratio after two sorts for PhoP signalling (ratio (wild type AVST 3.29)); higher = more functional
Conditions: with PhoP (E. coli)

Variant | enrichment ratio
FKET | ≤ 0.25
PQKF | ≤ 0.25
EFAE | ≤ 0.25
EDVT | ≤ 0.25
SSNQ | 1.31
VGSL | 0.336
VIHM | ≤ 0.25
LAST | ≤ 0.25
MWFH | ≤ 0.25
NTWP | ≤ 0.25
ALYI | ≤ 0.25
FGLA | 12.2
WFKK | ≤ 0.25
YGDF | ≤ 0.25
QICY | ≤ 0.25
IENG | ≤ 0.25
MSHR | ≤ 0.25
FAVD | ≤ 0.25
KFSH | ≤ 0.25
GRAG | ≤ 0.25
SVKN | ≤ 0.25
VIHF | ≤ 0.25
DDDG | ≤ 0.25
DTSW | ≤ 0.25

Variant | enrichment ratio
FVSW | ≤ 0.25
HRVT | ≤ 0.25
SLWS | ≤ 0.25
VNYF | ≤ 0.25
QSMF | ≤ 0.25
YANA | ≤ 0.25
KKAG | ≤ 0.25
HDCN | ≤ 0.25
HEHD | ≤ 0.25
VSKP | ≤ 0.25
MMDW | ≤ 0.25
RRPD | ≤ 0.25
TGRD | ≤ 0.25
VFQW | ≤ 0.25
HETM | ≤ 0.25
APGK | ≤ 0.25
AENT | 10.7
VYCH | ≤ 0.25
PHMT | ≤ 0.25
RENP | ≤ 0.25
RYYK | ≤ 0.25
EDAM | ≤ 0.25
YCKK | ≤ 0.25
GTEK | ≤ 0.25

Variant | enrichment ratio
FIYI | ≤ 0.25
IDIY | ≤ 0.25
QYMA | ≤ 0.25
FHYK | ≤ 0.25
RTLP | ≤ 0.25
QYFE | ≤ 0.25
NQVK | ≤ 0.25
SGVT | 8.24
IICI | ≤ 0.25
LQRV | ≤ 0.25
YGKL | 1.12
TKSR | ≤ 0.25
VEHG | ≤ 0.25
TIWM | ≤ 0.25
FNQI | ≤ 0.25
KLRN | ≤ 0.25
EPYW | ≤ 0.25
TQHK | ≤ 0.25
YIMA | ≤ 0.25
RLDA | ≤ 0.25
SYTV | 0.308
YHSM | ≤ 0.25
GMYH | ≤ 0.25
KHRM | ≤ 0.25

Variant | enrichment ratio
HHHA | ≤ 0.25
FEIG | ≤ 0.25
NMWR | ≤ 0.25
NAHV | ≤ 0.25
RQCQ | ≤ 0.25
RYTV | ≤ 0.25
AWCM | ≤ 0.25
HQMN | ≤ 0.25
NAWY | ≤ 0.25
DWDQ | ≤ 0.25
QSPN | ≤ 0.25
SMQC | ≤ 0.25
LSFL | 8
VNDY | ≤ 0.25
TCTL | 20.7
WPAP | ≤ 0.25
NEGR | ≤ 0.25
TASN | 9.06
GISQ | 6.68
MPLF | ≤ 0.25
FICM | 12.9
VTRR | ≤ 0.25
RMYG | ≤ 0.25
QFAP | ≤ 0.25

Variant | enrichment ratio
KHRY | ≤ 0.25
AELR | 7.91
MQYE | ≤ 0.25
YAGA | ≤ 0.25
NENY | ≤ 0.25
DAYF | ≤ 0.25
KTEL | ≤ 0.25
NWIA | ≤ 0.25
SHDC | ≤ 0.25
RRER | ≤ 0.25
QQHF | ≤ 0.25
EDGT | ≤ 0.25
RDLQ | ≤ 0.25
REHN | ≤ 0.25
QKLD | ≤ 0.25
IMPH | ≤ 0.25
SASF | 7.56
KIRD | ≤ 0.25
DICQ | ≤ 0.25
QVHR | ≤ 0.25
RIDV | ≤ 0.25
GCLR | ≤ 0.25
LLFT | ≤ 0.25
CSIH | ≤ 0.25

Variant | enrichment ratio
WMSH | ≤ 0.25
MEIS | 13.8
YPYS | ≤ 0.25
LIRQ | ≤ 0.25
PQKP | ≤ 0.25
LDIV | ≤ 0.25
KMCF | ≤ 0.25
WQLL | ≤ 0.25
LIKC | ≤ 0.25
LEEV | ≤ 0.25
CAYI | ≤ 0.25
GTEM | ≤ 0.25
MMTV | ≤ 0.25
NPEH | ≤ 0.25
DLEC | ≤ 0.25
QCRE | ≤ 0.25
HSEK | ≤ 0.25
GDTW | ≤ 0.25
NGSP | ≤ 0.25
MHQV | ≤ 0.25
TRTK | ≤ 0.25
AHKW | ≤ 0.25
RCAN | ≤ 0.25
FRVH | ≤ 0.25

Variant | enrichment ratio
PIRC | ≤ 0.25
KVFV | ≤ 0.25
EVPR | ≤ 0.25
KMQS | ≤ 0.25
YHVM | ≤ 0.25
LVRF | ≤ 0.25
SRSY | ≤ 0.25
PLTT | ≤ 0.25
LPCK | ≤ 0.25
HQRK | ≤ 0.25
GVLM | 9.19
FYSQ | ≤ 0.25
IRFD | ≤ 0.25
YGNH | ≤ 0.25
LARD | ≤ 0.25
ALAN | 1.92
QPVI | ≤ 0.25
PPGC | ≤ 0.25
TYMN | 0.285
VIKG | ≤ 0.25
HSNY | ≤ 0.25
QWSL | ≤ 0.25
VPDY | ≤ 0.25
SLEQ | ≤ 0.25

Variant | enrichment ratio
VHKY | ≤ 0.25
PFTT | ≤ 0.25
SPNY | ≤ 0.25
ITME | ≤ 0.25
TMAF | 5.19
WAYE | ≤ 0.25
IVWP | ≤ 0.25
MSHS | ≤ 0.25
HNCK | ≤ 0.25
GYMK | ≤ 0.25
KYKF | ≤ 0.25
LSGS | ≤ 0.25
RCHD | ≤ 0.25
YTSL | ≤ 0.25
DEPR | ≤ 0.25
MSPY | ≤ 0.25
MCKR | ≤ 0.25
DYKL | ≤ 0.25
WNTV | ≤ 0.25
DRDM | 1.77
GMIW | ≤ 0.25
AFYL | ≤ 0.25
TGCD | 0.285
FPRP | ≤ 0.25

Variant | enrichment ratio
MFWM | ≤ 0.25
WQFL | ≤ 0.25
QPWN | ≤ 0.25
RNNE | ≤ 0.25
WRDS | ≤ 0.25
YVVY | ≤ 0.25
ETKI | ≤ 0.25
HVLN | ≤ 0.25
EFLM | ≤ 0.25
VPTV | ≤ 0.25
MHIQ | ≤ 0.25
WCIY | ≤ 0.25
KIWR | ≤ 0.25
YNKT | ≤ 0.25
VFIM | ≤ 0.25
DKEY | ≤ 0.25
HHGG | ≤ 0.25
YMAM | ≤ 0.25
PWHI | ≤ 0.25
EGTG | ≤ 0.25
TPGN | ≤ 0.25
HQAV | ≤ 0.25
RGIV | ≤ 0.25
GGTG | ≤ 0.25

Variant | enrichment ratio
YIYS | ≤ 0.25
SDNT | ≤ 0.25
WGDP | ≤ 0.25
DWDV | ≤ 0.25
EYFA | ≤ 0.25
FYVE | ≤ 0.25
IEWA | ≤ 0.25
NLNI | ≤ 0.25
FVNR | ≤ 0.25
IESC | ≤ 0.25
EHIR | ≤ 0.25
VIWN | ≤ 0.25
RSQD | ≤ 0.25
HDWI | ≤ 0.25
TPNM | ≤ 0.25
TSKP | ≤ 0.25
YDPY | ≤ 0.25
LMAT | ≤ 0.25
DYAA | ≤ 0.25
EAIG | ≤ 0.25
HRSQ | ≤ 0.25
YRLW | ≤ 0.25
VCWK | ≤ 0.25
WEFV | ≤ 0.25

Variant | enrichment ratio
MMER | ≤ 0.25
RHSA | ≤ 0.25
SHVL | 2.8
NSAS | ≤ 0.25
LGWS | ≤ 0.25
SCHT | ≤ 0.25
MGGR | ≤ 0.25
MDMW | ≤ 0.25
YNND | ≤ 0.25
TNFG | ≤ 0.25
HYQW | ≤ 0.25
LNAF | ≤ 0.25
LSLK | ≤ 0.25
MAYH | 3.4
HNAR | ≤ 0.25
PSDS | ≤ 0.25
EVMH | ≤ 0.25
ARAF | ≤ 0.25
ICFL | ≤ 0.25
SYTS | ≤ 0.25
GVIV | ≤ 0.25
WGER | ≤ 0.25
FVLI | 2.52
NYMH | ≤ 0.25

Variant | enrichment ratio
IYQN | ≤ 0.25
GSQL | 0.629
HELT | ≤ 0.25
YEPI | ≤ 0.25
KNAW | ≤ 0.25
PQAN | ≤ 0.25
KIWS | ≤ 0.25
QALY | ≤ 0.25
FYWC | ≤ 0.25
LTWN | ≤ 0.25
RVMV | ≤ 0.25
PKTM | ≤ 0.25
RDRL | ≤ 0.25
KGST | ≤ 0.25
RYYT | ≤ 0.25
AMTP | ≤ 0.25
LVYL | ≤ 0.25
QKWL | ≤ 0.25
MHHH | ≤ 0.25
VGMP | ≤ 0.25
KPSV | ≤ 0.25
GMQG | ≤ 0.25
WYIG | ≤ 0.25
FAIG | ≤ 0.25

Variant | enrichment ratio
TEAL | 14.7
ICFP | ≤ 0.25
FTIR | ≤ 0.25
RANA | ≤ 0.25
PYLH | ≤ 0.25
KSKV | ≤ 0.25
FICE | ≤ 0.25
VGAY | ≤ 0.25
WDCH | ≤ 0.25
PMIE | ≤ 0.25
QIAG | ≤ 0.25
DYAT | ≤ 0.25
FCIV | ≤ 0.25
YQAQ | ≤ 0.25
FDQQ | ≤ 0.25
VTVS | ≤ 0.25
ITNL | ≤ 0.25
KYDD | ≤ 0.25

Reference: a collection of fitness landscapes (doi:10.1126/science.1257360)
